Publication PMC4336329 (PLoS ONE, 2015)
Hit rate of the full screen: of about 310,000 compounds, about 14,000 (4.5%) showed an effect of 50% or more. The effect is printed as a negative number. This is one part of the list.

What follows are molecules tested against human ether-à-go-go-related gene (hERG) potassium channel (human, UniProt Q12809) (assay: primary screen, population patch clamp on CHO cells stably expressing hERG).
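Also: peak tail current of the secondary pulse compared with the same well before compound.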

Chain of human ether-à-go-go-related gene (hERG) potassium channel (Q12809 whole entry, looked up): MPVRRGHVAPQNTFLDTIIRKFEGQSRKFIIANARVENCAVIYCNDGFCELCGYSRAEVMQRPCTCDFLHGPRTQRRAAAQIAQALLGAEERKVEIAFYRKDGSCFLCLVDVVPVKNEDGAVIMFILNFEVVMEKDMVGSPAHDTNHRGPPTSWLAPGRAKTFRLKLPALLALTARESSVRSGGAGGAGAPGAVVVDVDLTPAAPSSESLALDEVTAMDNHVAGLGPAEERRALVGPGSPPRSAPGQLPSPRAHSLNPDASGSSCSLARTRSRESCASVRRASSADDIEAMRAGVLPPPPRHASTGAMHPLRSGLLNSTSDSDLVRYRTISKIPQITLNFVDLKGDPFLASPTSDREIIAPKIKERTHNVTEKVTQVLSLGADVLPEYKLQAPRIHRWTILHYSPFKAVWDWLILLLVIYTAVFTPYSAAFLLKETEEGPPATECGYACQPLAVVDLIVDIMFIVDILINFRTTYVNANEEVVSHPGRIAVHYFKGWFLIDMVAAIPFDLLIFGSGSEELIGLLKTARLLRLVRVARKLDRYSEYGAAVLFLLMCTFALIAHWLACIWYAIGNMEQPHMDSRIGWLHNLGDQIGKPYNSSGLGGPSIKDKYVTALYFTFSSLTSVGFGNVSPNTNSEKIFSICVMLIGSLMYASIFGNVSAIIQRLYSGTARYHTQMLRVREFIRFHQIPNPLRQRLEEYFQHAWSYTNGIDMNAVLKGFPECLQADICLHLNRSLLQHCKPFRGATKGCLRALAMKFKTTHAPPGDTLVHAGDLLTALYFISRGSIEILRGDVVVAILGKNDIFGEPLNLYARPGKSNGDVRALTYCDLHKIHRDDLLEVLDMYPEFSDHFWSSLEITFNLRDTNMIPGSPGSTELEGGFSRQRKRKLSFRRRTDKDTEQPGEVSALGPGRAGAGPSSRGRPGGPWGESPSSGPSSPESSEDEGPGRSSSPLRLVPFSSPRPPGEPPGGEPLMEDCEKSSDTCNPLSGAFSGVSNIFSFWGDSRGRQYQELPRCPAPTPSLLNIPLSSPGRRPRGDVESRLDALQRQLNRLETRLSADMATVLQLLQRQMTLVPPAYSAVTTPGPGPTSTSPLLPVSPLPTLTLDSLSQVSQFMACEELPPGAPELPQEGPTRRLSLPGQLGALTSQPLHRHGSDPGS

SMILES | hERG current change (%, negative = inhibition) at 10uM
O=C(NCCc1ccccc1)C1CCN(S(=O)(=O)N2CCC3(CC2)OCCO3)CC1 | -0.566%
O=C(CCNS(=O)(=O)c1ccccc1)N1CCN(c2ccccc2)CC1 | -14.9%
Cc1ccc(NC2CCCN(C(=O)CCn3nccc3C)C2)cc1C (stereo not shown) | -1.08%
COc1cccc(NC(=O)c2cc([N+](=O)[O-])ccc2NCc2cccnc2)c1 | -44%
CCN(CC)CCn1cnc2c1c(=O)[nH]c(=O)n2Cc1ccccc1.Cl | -4.74%
O=S(=O)(c1ccc(NC(=S)NC2CC2)cc1)N1CCOCC1 | 21%
Cc1[nH]c2ccc(C(=O)N3CCN(c4cccc(Cl)c4)CC3)cc2c1C | 11.8%
O=[N+]([O-])c1ccc(S(=O)(=O)Nc2ccncc2)cc1 | 6.09%
COc1ccc(CCNC(=O)c2sc3nc4n(c(=O)c3c2C)CCC4)cc1 | -7.25%
Cn1c(C(=O)NCCCN2CCCCC2)cc2sccc21 | -49%
CCCn1c(=O)[nH]c(=O)c2[nH]cnc21 | 20.1%
S=C(Nc1ccccc1)Nc1ccc(OCc2ccc(Cl)cc2Cl)cc1 | 12.6%
COC(=O)c1ccc(-n2c(C)cc(C(=O)CCl)c2C)cc1 | -2.79%
O=S(=O)(/C=C/c1ccccc1)Nc1cccc(S(=O)(=O)NC2=NCCC2)c1 | 20.4%
Cc1ccc(OCC(=O)Nc2cccc(-c3nnc(-c4ccccc4)o3)c2)cc1 | 14.5%
CCC(=O)Nc1nnc(S(=O)(=O)N(C)Cc2ccco2)s1 | 14.4%
CCOC(=O)c1c(NC(=O)c2ccn(CC)n2)sc2c1CCCC2 | -4.2%
CN1C=CC=C/C1=C1/SC(=S)N(Cc2ccccc2)C1=O | -15.7%
COc1ccc(NC(=O)CSC2=NCCN2)cc1.Cl | -7.1%
O=C(Cc1ccccc1)Nc1ccccc1N1CCN(c2ccccc2)CC1 | 11.9%
CCCCCCCn1ccc(O)c(CC(=O)OC)c1=O | -13.5%
COC(=O)c1ccc(CON2C(=O)c3ccccc3C2=O)cc1 | 2.54%
CC1CCN(C(=O)CC(NC(N)=O)c2ccccc2Cl)CC1 (stereo not shown) | 17.5%

SMILES | hERG current change (%, negative = inhibition) at 10uM
O=C(Nc1nnc2n1CCS2)c1ccc(Br)o1 | 18.9%
O=C1CC(Nc2ccccc2)C(=O)N1CCc1ccccc1 (stereo not shown) | 15.9%
CC(=O)N[C@@H](Cc1c[nH]c2ccccc12)C(=O)NC1CCCc2ccccc21 (stereo partly shown) | 21%
Br.COC(=O)CN1C2=NCCCN2c2ccccc21 | -11.8%
O=C(CCCC(=O)N(c1cccc(F)c1)C(C(=O)NC1CCCC1)c1ccc(O)cc1)Nc1ccccn1 (stereo not shown) | 8.76%
COc1cccc(C(=O)COc2ccc3c(C)c(Cc4ccccc4)c(=O)oc3c2C)c1 | -15.2%
COc1ccc(/C=C/C(=O)OC(C)C(=O)c2ccccc2)cc1OC (stereo not shown) | -10.5%
COc1ccc(C(=O)Nc2ccc(S(=O)(=O)N3CCOCC3)cc2)cc1OC | 2.58%
COC(=O)Cc1c(C(=O)OC)nnn1-c1ccc(OC)cc1 | 13.8%
COc1ccccc1NS(=O)(=O)c1ccc(OC)c([N+](=O)[O-])c1 | 0.00128%
Cc1nn(C)cc1NC(=O)c1cc2nc(-c3ccco3)cc(C(F)(F)F)n2n1 | 4.66%
O=C(NCc1cccnc1)C1CC(c2ccccc2Cl)=NO1 (stereo not shown) | 2.13%
CCC(C)[C@H](NC(=O)NCCC1=CCCCC1)C(=O)O (stereo partly shown) | -7.02%
Cc1cc(OCC(O)CN2CCOCC2)cc(C)c1Cl.Cl (stereo not shown) | 14.4%
CCC(C)C(NC(=O)C1CCC(C)CC1)C(=O)Nc1cc(OC)ccc1OC (stereo not shown) | -26.4%
COc1ccc(NS(=O)(=O)c2ccc3oc(SC4CCOC4=O)nc3c2)cc1 (stereo not shown) | -23.8%
O=C(NC(Cc1ccccc1)C(=O)O)/C(=C\c1ccc(Cl)cc1)NC(=O)c1ccco1 (stereo not shown) | 2.34%
COc1ccc(S(=O)(=O)N2CCCCC2)cc1NC(=O)Cc1ccsc1 | 7.12%
CC(C)C1(C)N=C(c2ncccc2C(=O)[O-])NC1=O.[Na+] (stereo not shown) | 8.96%
CCN(CC)C(=O)CN1CCN(Cc2ccc3c(c2)OCO3)CC1.O=C(O)C(=O)O | 17.9%
COc1cccc(N2CCN(c3ccc4nnc(CCC(=O)Nc5cc(C)ccn5)n4n3)CC2)c1 | -11.6%
CCC(C)(C)N=C(NC#N)Nc1cccnc1 | 6.22%
O=C1/C(=C/c2ccc([N+](=O)[O-])cc2)CCc2ccccc21 | -0.452%
